In the supplement of paper PMC4967469 one finds AUC and IC50 data, which are given here for 20 cell lines.

By IC50 is meant the dose at which the fit gives 50% viability; fits outside the tested doses are given as limits. AUC is the area under the same curve over the 256-fold range up to the top dose, as a fraction; the more sensitive the line, the further below 1. Where the top dose is marked as inferred, it was calculated from the reported fits. For some assays here: Where an entry number is given, a second screen of the drug exists; the two often differ. Some results are limits rather than exact numbers.

Compound in the first assay: CC(C)=CC[C@@H](O)C1=CC(=O)c2c(O)ccc(O)c2C1=O [Shikonin]
Nature of the assay: Viability of human cancer cell lines after 72 h of drug (GDSC screen). The following applies: top dose 16 µM; top dose inferred. On the procedure: (§1)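 Human cancer cell lines in 384-well plates, medium with 10% serum, drug for 72 h over a 256-fold dose range (nine 2-fold or five 4-fold steps up to the top dose). Adherent lines were fixed and stained with the nucleic acid dye Syto60, suspension lines read with resazurin; signal relative to control wells, capped at 0 and 100%. One two-parameter sigmoid per drug and line, fitted in a mixed model over all curves with the slope shared within a line.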
One may read the IC50 as the concentration needed to halve the response being measured. As to 8-MG-BA (glioma, adherent), the AUC amounted to 0.199 and the IC50 was determined as 138 nM.
As for A101D (melanoma, adherent), the AUC turned out to be 0.077 and the IC50 is < 62.5 nM.
For A253 (head and neck, adherent), the AUC was 0.056 and the IC50 was < 62.5 nM.
The matching figures for A388 (skin, adherent): 0.503 and 1020 nM.
Regarding A498 (kidney, adherent), the AUC amounted to 0.237 and the 50% inhibitory concentration (IC50) turned out to be 114 nM.
As to “ALL-PO (lymphoblastic leukaemia, suspension)”, the AUC was found to be 0.301 and the IC50 came to 267 nM.
For “AMO-1 (haematopoietic neoplasm, suspension)”, in that order: 0.511 and 1070 nM.
The matching figures for “ATN-1 (T-cell lymphoblastic leukaemia, suspension)”: 0.42 and 615 nM.
The matching figures for “BE-13 (lymphoblastic leukaemia, suspension)”: 0.435 and 673 nM.
Turning to BL-41 (Burkitt lymphoma, suspension), the AUC was 0.418 and the IC50 is 629 nM.
For BT-474 (breast, adherent), in that order: 0.289 and 233 nM.
For Becker (glioma, adherent), in that order: 0.636 and 2500 nM.
Consider CAS-1 (glioma, adherent), for which the AUC was determined as 0.47 and the IC50 was 807 nM.
In the case of CGTH-W-1 (thyroid, adherent), the AUC was determined as 0.459 and the IC50 worked out at 774 nM.
The matching figures for “COLO-668 (small cell lung carcinoma, adherent)”: 0.664 and 2850 nM.
The matching figures for COLO-684 (endometrium, suspension): 0.357 and 381 nM.
The matching figures for COLO-800 (melanoma, adherent): 0.773 and 6070 nM.
Consider “COR-L95 (small cell lung carcinoma, adherent)”, for which the AUC came to 0.652 and the IC50 worked out at 2830 nM.
The matching figures for CW-2 (large intestine, adherent): 0.918 and > 16000 nM.
For D-247MG (glioma, adherent), in that order: 0.581 and 1810 nM.

Compound in a further assay: Cc1cc(N2CCOCC2)cc2[nH]c(-c3c(NC[C@@H](O)c4cccc(Cl)c4)cc[nH]c3=O)nc12 [BMS-536924]
The assay is described as above. The following applies: top dose 4 µM; screen: GDSC drug entry 1091; top dose inferred. As for the experimental part:
as §1
Consider 8-MG-BA (glioma, adherent), for which the AUC came out at 0.902 and the IC50 was > 4000 nM.
The matching figures for A101D (melanoma, adherent): 0.919 and > 4000 nM.
For A253 (head and neck, adherent), in that order: 0.921 and > 4000 nM.
For A388 (skin, adherent), in that order: 0.981 and > 4000 nM.
Take A498 (kidney, adherent): the AUC came to 0.778 and the IC50 was determined as 2530 nM.
Take “ALL-PO (lymphoblastic leukaemia, suspension)”: the AUC was 0.893 and the IC50 was > 4000 nM.
For “AMO-1 (haematopoietic neoplasm, suspension)”, in that order: 0.724 and 970 nM.
For “ATN-1 (T-cell lymphoblastic leukaemia, suspension)”, in that order: 0.737 and 1120 nM.
For “BE-13 (lymphoblastic leukaemia, suspension)”, in that order: 0.923 and > 4000 nM.
Regarding BL-41 (Burkitt lymphoma, suspension), the AUC came to 0.992 and the IC50 is > 4000 nM.
The matching figures for BT-474 (breast, adherent): 0.978 and > 4000 nM.
For Becker (glioma, adherent), in that order: 0.956 and > 4000 nM.
For CAS-1 (glioma, adherent), in that order: 0.95 and > 4000 nM.
Take CGTH-W-1 (thyroid, adherent): the AUC turned out to be 0.913 and the IC50 is > 4000 nM.
For “COLO-668 (small cell lung carcinoma, adherent)”, in that order: 0.914 and > 4000 nM.
For COLO-684 (endometrium, suspension), in that order: 0.977 and > 4000 nM.
The matching figures for COLO-800 (melanoma, adherent): 0.734 and 1130 nM.
Regarding “COR-L95 (small cell lung carcinoma, adherent)”, the AUC turned out to be 0.936 and the IC50 is > 4000 nM.
The matching figures for CW-2 (large intestine, adherent): 0.977 and > 4000 nM.
For D-247MG (glioma, adherent), in that order: 0.941 and > 4000 nM.

Still in this assay, the particulars now being: top dose 5.12 µM; screen: GDSC drug entry 62.
Consider 8-MG-BA (glioma, adherent), for which the AUC is 0.853 and the IC50 came to 3610 nM.
For A101D (melanoma, adherent), in that order: 0.759 and 2180 nM.
For A253 (head and neck, adherent), in that order: 0.964 and > 5120 nM.
The matching figures for A388 (skin, adherent): 0.884 and > 5120 nM.
Consider A498 (kidney, adherent), for which the AUC came to 0.809 and the IC50 is 4530 nM.
For “ALL-PO (lymphoblastic leukaemia, suspension)”, in that order: 0.533 and 396 nM.
The matching figures for “AMO-1 (haematopoietic neoplasm, suspension)”: 0.823 and 2470 nM.
For “ATN-1 (T-cell lymphoblastic leukaemia, suspension)”, in that order: 0.455 and 243 nM.
On to “BE-13 (lymphoblastic leukaemia, suspension)”, for which the AUC is 0.906 and the IC50 is > 5120 nM.
BL-41 (Burkitt lymphoma, suspension): the AUC turned out to be 0.897 and the IC50 was 3680 nM.
For BT-474 (breast, adherent), in that order: 0.981 and > 5120 nM.
The matching figures for Becker (glioma, adherent): 0.813 and 3190 nM.
The matching figures for CAS-1 (glioma, adherent): 0.887 and > 5120 nM.
As for CGTH-W-1 (thyroid, adherent), the AUC came to 0.812 and the IC50 stood at 2720 nM.
The matching figures for “COLO-668 (small cell lung carcinoma, adherent)”: 0.677 and 998 nM.
The matching figures for COLO-684 (endometrium, suspension): 0.985 and > 5120 nM.
For COLO-800 (melanoma, adherent), in that order: 0.987 and > 5120 nM.
Regarding “COR-L95 (small cell lung carcinoma, adherent)”, the AUC stood at 0.828 and the IC50 was found to be 3860 nM.
The matching figures for CW-2 (large intestine, adherent): 0.988 and > 5120 nM.
For D-247MG (glioma, adherent), in that order: 0.907 and > 5120 nM.

Compound in another assay: O=C1NC(=O)c2c1c(-c1ccccc1Cl)cc1[nH]c3ccc(O)cc3c21 [Wee1 inhibitor 681640]
Described as above. Particulars: top dose 2 µM; top dose inferred. On the procedure:
as §1
In the case of 8-MG-BA (glioma, adherent), the AUC was 0.847 and the IC50 is 1340 nM.
For A101D (melanoma, adherent), in that order: 0.975 and > 2000 nM.
The matching figures for A253 (head and neck, adherent): 0.989 and > 2000 nM.
For A388 (skin, adherent), in that order: 0.982 and > 2000 nM.
